Test results published in paper PMC10741959.
No constants are given. Whether binding was seen depends on the method and setting. In cells and extracts the contact can be indirect. Some binding calls cover weakened binding; strength is not graded here. For some assays here: Sequences can lack the tags named with a protein.

Chains of the proteins cited; added tags and fusions are not shown. Lines headed by an entry give the natural chain unless they say otherwise; changes in a name come on top. Residues count along the entry.
UniProt P37198: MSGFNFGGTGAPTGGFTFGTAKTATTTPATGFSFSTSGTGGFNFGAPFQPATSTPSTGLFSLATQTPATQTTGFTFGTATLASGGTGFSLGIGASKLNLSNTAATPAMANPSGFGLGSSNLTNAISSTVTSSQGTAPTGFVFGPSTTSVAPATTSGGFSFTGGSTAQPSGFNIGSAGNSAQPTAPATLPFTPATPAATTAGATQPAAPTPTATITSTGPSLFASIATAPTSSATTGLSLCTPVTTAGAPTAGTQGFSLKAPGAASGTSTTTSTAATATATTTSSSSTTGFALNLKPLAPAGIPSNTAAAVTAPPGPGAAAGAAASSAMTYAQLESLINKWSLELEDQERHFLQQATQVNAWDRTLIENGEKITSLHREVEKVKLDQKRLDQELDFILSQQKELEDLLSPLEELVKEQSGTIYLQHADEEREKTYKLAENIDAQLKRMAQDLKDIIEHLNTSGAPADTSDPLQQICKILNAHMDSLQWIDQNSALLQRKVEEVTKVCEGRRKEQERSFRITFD
UniProt P49790: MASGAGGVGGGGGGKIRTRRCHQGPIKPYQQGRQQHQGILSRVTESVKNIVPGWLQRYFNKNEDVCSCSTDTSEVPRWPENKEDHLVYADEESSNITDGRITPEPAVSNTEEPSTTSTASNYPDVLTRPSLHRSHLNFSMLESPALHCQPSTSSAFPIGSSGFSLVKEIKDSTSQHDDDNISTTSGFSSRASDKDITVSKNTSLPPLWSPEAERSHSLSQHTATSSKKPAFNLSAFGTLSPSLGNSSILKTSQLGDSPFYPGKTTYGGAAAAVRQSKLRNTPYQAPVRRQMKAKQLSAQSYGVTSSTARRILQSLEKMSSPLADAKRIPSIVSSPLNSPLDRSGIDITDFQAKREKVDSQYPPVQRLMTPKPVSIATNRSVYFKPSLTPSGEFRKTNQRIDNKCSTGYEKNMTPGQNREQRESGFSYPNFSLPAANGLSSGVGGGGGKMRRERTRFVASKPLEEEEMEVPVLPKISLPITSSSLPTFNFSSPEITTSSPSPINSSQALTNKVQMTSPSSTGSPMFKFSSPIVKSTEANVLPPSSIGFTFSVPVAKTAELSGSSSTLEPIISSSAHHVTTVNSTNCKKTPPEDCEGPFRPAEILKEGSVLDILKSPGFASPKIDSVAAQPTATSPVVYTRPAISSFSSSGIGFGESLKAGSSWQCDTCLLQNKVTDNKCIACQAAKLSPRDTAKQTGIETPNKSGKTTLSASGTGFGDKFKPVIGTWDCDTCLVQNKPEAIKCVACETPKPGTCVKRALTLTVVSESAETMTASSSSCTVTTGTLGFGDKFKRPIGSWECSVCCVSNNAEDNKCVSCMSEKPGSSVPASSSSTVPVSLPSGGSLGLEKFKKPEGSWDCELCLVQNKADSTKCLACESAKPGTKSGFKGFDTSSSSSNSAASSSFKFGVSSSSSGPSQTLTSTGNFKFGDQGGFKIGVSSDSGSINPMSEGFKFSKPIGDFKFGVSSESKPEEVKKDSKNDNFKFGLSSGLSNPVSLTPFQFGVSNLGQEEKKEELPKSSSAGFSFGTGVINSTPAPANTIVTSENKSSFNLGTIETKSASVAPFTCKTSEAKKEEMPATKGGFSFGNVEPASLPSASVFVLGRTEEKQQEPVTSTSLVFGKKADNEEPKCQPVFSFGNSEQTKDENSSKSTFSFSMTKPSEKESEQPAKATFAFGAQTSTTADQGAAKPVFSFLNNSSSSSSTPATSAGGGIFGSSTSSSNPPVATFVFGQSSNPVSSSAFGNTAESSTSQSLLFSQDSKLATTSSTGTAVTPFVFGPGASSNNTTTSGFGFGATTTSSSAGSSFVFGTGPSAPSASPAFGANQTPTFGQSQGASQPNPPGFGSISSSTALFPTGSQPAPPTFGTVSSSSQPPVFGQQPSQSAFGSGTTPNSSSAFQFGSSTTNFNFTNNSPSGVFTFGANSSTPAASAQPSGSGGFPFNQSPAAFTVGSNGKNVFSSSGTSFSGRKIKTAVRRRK
UniProt P52948, residues 1-880: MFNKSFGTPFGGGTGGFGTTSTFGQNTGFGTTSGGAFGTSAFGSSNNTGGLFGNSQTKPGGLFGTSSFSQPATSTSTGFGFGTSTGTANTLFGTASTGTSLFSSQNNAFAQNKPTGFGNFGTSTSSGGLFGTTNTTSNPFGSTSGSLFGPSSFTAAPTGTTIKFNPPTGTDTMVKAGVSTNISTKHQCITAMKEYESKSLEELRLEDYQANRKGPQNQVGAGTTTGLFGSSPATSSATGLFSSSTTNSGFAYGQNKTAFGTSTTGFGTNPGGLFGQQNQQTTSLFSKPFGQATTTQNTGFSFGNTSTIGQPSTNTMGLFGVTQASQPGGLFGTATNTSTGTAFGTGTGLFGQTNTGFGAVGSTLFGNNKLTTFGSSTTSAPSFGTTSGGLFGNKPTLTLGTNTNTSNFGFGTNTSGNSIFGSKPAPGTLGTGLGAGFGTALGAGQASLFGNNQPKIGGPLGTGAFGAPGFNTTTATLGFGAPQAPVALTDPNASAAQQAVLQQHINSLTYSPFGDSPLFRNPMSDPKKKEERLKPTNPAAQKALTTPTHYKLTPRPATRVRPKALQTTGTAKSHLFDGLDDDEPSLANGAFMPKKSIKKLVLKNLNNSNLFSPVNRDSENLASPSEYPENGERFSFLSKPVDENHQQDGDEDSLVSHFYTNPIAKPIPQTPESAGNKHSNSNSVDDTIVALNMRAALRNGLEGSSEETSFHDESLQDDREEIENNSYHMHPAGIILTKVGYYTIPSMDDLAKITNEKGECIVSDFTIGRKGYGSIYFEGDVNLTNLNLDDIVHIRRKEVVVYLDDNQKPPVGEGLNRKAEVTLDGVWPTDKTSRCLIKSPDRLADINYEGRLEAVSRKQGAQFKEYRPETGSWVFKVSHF
UniProt P49792: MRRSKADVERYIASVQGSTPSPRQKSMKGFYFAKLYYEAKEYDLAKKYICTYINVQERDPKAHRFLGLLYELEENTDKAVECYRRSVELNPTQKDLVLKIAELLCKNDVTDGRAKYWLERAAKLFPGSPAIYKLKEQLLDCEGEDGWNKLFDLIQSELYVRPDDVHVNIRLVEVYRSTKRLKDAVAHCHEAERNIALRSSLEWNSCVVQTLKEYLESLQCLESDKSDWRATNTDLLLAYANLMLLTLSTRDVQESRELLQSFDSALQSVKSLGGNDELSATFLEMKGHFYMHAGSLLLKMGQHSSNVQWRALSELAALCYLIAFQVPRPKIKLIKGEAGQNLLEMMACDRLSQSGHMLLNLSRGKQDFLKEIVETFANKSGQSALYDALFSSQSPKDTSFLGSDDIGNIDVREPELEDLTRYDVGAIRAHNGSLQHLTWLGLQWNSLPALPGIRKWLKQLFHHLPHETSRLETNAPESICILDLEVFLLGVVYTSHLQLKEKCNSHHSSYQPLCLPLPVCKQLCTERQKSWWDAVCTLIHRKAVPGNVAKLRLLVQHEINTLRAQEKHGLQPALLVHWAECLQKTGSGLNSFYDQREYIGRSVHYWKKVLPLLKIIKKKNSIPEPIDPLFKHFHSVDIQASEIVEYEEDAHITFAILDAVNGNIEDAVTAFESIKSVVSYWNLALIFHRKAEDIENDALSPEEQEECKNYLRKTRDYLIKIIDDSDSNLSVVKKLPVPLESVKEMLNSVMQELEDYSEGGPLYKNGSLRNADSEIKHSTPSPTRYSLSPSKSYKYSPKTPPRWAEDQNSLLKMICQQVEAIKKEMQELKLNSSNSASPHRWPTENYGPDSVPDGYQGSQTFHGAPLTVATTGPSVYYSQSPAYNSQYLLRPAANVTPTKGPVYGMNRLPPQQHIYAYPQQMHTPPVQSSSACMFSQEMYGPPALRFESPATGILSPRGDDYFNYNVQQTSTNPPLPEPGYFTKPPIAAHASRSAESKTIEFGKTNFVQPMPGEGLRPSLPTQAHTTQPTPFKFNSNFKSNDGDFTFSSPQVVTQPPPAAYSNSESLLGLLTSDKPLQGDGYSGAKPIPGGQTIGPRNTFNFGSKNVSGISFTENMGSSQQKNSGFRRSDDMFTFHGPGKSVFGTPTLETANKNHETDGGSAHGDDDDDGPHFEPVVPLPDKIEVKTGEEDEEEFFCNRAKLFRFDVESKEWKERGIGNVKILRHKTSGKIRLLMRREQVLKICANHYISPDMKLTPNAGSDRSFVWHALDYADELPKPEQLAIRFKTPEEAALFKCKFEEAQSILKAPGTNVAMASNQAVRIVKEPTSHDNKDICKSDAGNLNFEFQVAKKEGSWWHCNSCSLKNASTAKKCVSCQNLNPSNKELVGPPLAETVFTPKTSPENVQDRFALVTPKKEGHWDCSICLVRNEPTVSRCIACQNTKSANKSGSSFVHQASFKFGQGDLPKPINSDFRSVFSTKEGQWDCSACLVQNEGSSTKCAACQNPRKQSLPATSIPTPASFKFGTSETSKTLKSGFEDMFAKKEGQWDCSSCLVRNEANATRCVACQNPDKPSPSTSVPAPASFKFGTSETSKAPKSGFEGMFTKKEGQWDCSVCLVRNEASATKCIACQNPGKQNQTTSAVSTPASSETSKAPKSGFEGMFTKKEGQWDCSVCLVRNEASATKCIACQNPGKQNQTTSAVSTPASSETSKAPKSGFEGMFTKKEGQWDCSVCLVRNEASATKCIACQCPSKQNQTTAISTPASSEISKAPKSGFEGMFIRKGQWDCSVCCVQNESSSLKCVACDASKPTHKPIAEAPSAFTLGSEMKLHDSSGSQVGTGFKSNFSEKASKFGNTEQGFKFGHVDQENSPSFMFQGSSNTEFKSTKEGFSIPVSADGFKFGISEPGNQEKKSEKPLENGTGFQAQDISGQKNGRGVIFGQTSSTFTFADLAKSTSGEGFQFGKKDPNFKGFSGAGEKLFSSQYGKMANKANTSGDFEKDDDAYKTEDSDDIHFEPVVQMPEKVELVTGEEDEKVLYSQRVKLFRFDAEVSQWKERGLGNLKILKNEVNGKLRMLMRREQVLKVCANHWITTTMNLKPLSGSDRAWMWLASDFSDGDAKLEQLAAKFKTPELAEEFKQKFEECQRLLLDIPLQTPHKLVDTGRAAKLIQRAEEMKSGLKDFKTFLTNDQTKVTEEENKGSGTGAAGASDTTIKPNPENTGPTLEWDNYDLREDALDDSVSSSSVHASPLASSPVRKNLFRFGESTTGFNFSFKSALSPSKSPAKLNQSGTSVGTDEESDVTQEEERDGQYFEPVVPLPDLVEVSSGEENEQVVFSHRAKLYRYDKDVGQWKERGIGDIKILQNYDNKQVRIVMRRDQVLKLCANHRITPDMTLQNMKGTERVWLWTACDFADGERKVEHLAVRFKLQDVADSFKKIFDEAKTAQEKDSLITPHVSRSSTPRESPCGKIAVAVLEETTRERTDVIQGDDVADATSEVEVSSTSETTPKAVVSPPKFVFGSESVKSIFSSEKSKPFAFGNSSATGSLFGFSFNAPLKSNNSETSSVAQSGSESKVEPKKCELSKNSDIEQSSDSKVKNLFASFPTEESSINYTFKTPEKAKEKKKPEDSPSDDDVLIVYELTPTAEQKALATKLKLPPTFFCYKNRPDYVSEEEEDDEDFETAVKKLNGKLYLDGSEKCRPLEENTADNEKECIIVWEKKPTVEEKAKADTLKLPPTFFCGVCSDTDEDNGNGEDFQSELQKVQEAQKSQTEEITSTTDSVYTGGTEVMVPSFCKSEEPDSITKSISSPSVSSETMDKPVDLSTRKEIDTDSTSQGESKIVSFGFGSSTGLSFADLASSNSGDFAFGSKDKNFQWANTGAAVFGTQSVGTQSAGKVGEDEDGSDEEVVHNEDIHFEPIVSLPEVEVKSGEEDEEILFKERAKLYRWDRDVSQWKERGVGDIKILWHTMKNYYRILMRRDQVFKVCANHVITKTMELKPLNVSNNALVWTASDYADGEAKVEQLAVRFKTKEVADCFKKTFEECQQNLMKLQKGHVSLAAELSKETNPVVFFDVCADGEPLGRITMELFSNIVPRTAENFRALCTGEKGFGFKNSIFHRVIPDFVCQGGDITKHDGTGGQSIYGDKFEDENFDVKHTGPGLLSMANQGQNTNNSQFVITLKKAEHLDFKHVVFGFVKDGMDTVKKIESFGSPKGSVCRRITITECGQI

Experiments:
[1] = biological target: T1, C-terminal RTEL1 carrying the ITD (683-1300) (human) (UniProt Q9NZ71); assay: co-IP; N-terminal fragment of NUP153 (1-434) together with C-terminal RTEL1 (683-1300) (Figure S5B)
T1 sequence: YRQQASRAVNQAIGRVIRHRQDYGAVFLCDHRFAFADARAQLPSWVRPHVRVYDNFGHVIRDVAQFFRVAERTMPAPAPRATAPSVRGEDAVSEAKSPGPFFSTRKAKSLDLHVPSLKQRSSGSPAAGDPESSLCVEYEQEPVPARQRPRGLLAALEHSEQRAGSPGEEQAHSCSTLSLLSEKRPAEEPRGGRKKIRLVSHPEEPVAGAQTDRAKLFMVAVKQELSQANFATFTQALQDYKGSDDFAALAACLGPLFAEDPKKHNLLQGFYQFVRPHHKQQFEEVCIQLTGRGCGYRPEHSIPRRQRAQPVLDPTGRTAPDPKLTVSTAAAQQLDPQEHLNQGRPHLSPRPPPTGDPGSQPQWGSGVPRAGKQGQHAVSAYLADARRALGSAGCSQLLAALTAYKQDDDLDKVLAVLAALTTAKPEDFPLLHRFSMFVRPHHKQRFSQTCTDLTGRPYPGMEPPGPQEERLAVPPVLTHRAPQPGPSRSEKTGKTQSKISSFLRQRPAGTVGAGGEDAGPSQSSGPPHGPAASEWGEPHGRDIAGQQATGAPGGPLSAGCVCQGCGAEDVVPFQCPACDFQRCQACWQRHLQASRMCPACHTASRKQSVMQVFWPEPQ

[2] = biological target: T2, GFP fused to the Import Targeting Domain (ITD, 683-808) of RTEL1 (human) (UniProt Q9NZ71); assay: co-IP; GFP-tagged ITD (683-808) of RTEL1 expressed in cells, endogenous nucleoporins blotted (Figure S5C,D)
T2 sequence: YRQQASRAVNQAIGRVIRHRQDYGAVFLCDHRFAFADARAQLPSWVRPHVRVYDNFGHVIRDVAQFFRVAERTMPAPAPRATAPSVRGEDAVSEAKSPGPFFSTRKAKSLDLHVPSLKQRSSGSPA

| binding [1] | binding [2] | Substance |
| --- | --- | --- |
|  | binds | NUP62, endogenous (from UniProt P37198 1-522) |
|  | binds | NUP153, endogenous (from UniProt P49790 1-1475) |

More lines, now with the values behind:

| Substance | binding [1] | binding [2] |
| --- | --- | --- |
| GFP-tagged N-terminal fragment of NUP153 (aa 1-434) (from UniProt P49790 1-434) (domain or fragment) | binds |  |
| NUP98, endogenous (from UniProt P52948 1-880) |  | no binding |
| RANBP2, endogenous (from UniProt P49792 1-3224) |  | no binding |
